According to the supplement of paper PMC9446081:
The whole screen tested about 39,000 compounds, of which about 220 (0.56%) showed activity. The list shows a part of the results.

Tested on: Escherichia coli K-12 BW25113
Assay: relative growth (OD600 normalised to plate interquartile mean) (fraction); higher = less growth inhibition, active = 0.2 or less
Conditions: 50 µM; LB; incubation time: overnight (16-24 h)
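Note: static incubation at 37 °C against the wild-type strain, values averaged over two biological replicates.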

Row | Structure (SMILES) | relative growth
1 | C[C@H]1CCCCO[C@@H](CN(C)Cc2ccc(C(F)(F)F)cc2)[C@@H](C)CN([C@@H](C)CO)C(=O)c2cc(NC(=O)c3ccncc3)ccc2O1 | inactive: 0.998
2 | CNC(=O)C(=O)Nc1ccc(N2CCCS2(=O)=O)cc1 | inactive: 0.961
3 | Cc1ccc(S(=O)(=O)N(C)C[C@H]2OCCCC[C@H](C)Oc3ccc(NC(=O)Nc4c(C)noc4C)cc3C(=O)N([C@H](C)CO)C[C@@H]2C)cc1 | inactive: 0.996
4 | CN(C)CCCNC(=O)C[C@@H]1CC[C@H](NS(=O)(=O)c2ccccc2)[C@@H](CO)O1 | inactive: 1
5 | C[C@H](CO)N1C[C@H](C)[C@@H](CN(C)Cc2ccc(-c3ccccc3)cc2)Oc2c(NC(=O)c3ccc(-c4nccs4)cc3)cccc2C1=O | inactive: 1.03
6 | Cc1noc(C)c1S(=O)(=O)Nc1cccc2c1O[C@H](CN(C)S(=O)(=O)c1ccccc1)[C@H](C)CN([C@H](C)CO)C2=O | inactive: 1.04
7 | C[C@H](CO)N1C[C@H](C)[C@H](CN(C)Cc2ccc(F)cc2)Oc2cc(C#CC3CC3)ccc2S1(=O)=O | inactive: 1.01
8 | C[C@@H]1CN([C@H](C)CO)C(=O)c2cc(NC(=O)c3ccccc3)ccc2O[C@@H](C)CCCCO[C@H]1CN(C)C(=O)c1ccccc1 | inactive: 0.997
9 | COc1ccc(N2CCCS2(=O)=O)cc1N | inactive: 0.99
10 | Cc1noc(C)c1NC(=O)Nc1ccc2c(c1)C(=O)N([C@@H](C)CO)C[C@@H](C)[C@@H](CN(C)Cc1ccc(Cl)c(Cl)c1)OCCCC[C@@H](C)O2 | inactive: 1.03
11 | Cc1ccc(S(=O)(=O)Nc2ccc3c(c2)CC(=O)N([C@H](C)CO)C[C@H](C)[C@H](CN(C)Cc2ccc(Oc4ccccc4)cc2)O3)cc1 | inactive: 0.968
12 | CN1C(=O)c2cc(NS(=O)(=O)c3ccc(F)cc3)ccc2OC[C@H]2O[C@@H](CC(=O)Nc3cccc4ccccc34)CC[C@@H]21 | inactive: 1.02
13 | C[C@H](CO)N1C[C@H](C)[C@@H](CN(C)C(=O)Nc2ccc3c(c2)OCO3)Oc2c(NC(=O)Nc3cccc4ccccc34)cccc2C1=O | inactive: 1.01
14 | C[C@@H]1CCCCO[C@@H](CN(C)Cc2ccncc2)[C@H](C)CN([C@H](C)CO)C(=O)c2cc(NC(=O)Nc3ccc(F)cc3)ccc2O1 | inactive: 1.01
15 | CS(=O)(=O)CCNCc1nc(-c2ccc3ncnc(Nc4ccc(OCc5cccc(F)c5)c(Cl)c4)c3c2)cs1 | inactive: 1.01
16 | COC(=O)C1=C[C@@H](O)[C@@H](O)[C@H](O[C@@H]2O[C@H](COC(=O)/C=C/c3ccccc3)[C@@H](O)[C@H](O)[C@H]2O)C1 | inactive: 0.984
17 | Cc1ccc(S(=O)(=O)N(C)C[C@@H]2OCCCC[C@@H](C)Oc3ccc(NC(=O)Nc4ccccc4)cc3C(=O)N([C@H](C)CO)C[C@H]2C)cc1 | inactive: 1.02
18 | O=C(C[C@H]1C=C[C@@H](NC(=O)c2cccnc2)[C@@H](CO)O1)NCc1ccncn1 | inactive: 1.04
19 | C[C@H]1CCc2c(C(=O)O)csc2C1 | inactive: 1.01
20 | COc1ccc(S(=O)(=O)N(C)C[C@@H]2OCCCC[C@@H](C)Oc3ccc(NS(C)(=O)=O)cc3C(=O)N([C@@H](C)CO)C[C@H]2C)cc1 | inactive: 1.01

Row | Structure (SMILES) | relative growth
21 | COc1ccc2c(c1)OC1c3ccc(OC)cc3OCC21 (stereo not given) | inactive: 0.893
22 | COc1ccc(CNC(=O)C[C@@H]2C[C@@H]3c4cc(NC(=O)NC5CCCC5)ccc4O[C@@H]3[C@@H](CO)O2)cc1 | inactive: 1
23 | CNc1cc(=O)n(C)c(=O)n1C | inactive: 1.02
24 | NC1=N[C@H]2CS(=O)(=O)C[C@@H]2S1 | inactive: 0.995
25 | C[C@@H]1CN([C@@H](C)CO)C(=O)c2cccc(NC(=O)C3CCOCC3)c2O[C@@H]1CN(C)Cc1ccc(Oc2ccccc2)cc1 | inactive: 1.01
26 | COCC#Cc1ccc2c(c1)O[C@H](CN(C)C(=O)CN(C)C)[C@H](C)CN([C@H](C)CO)S2(=O)=O | inactive: 0.994
27 | Cc1ccc(S(=O)(=O)Nc2ccc3c(c2)C(=O)N([C@H](C)CO)C[C@H](C)[C@H](CN(C)S(=O)(=O)c2ccc(F)cc2)OCCCC[C@H](C)O3)cc1 | inactive: 0.899
28 | COc1ccc(S(=O)(=O)Nc2ccc3c(c2)CC(=O)N([C@@H](C)CO)C[C@@H](C)[C@@H](CN(C)S(=O)(=O)c2c(C)noc2C)O3)cc1 | inactive: 1.02
29 | O=C(C[C@H]1C=C[C@@H](NC(=O)c2cccnc2)[C@@H](CO)O1)NCCN1CCCCC1 | inactive: 1.02
30 | CC(C)NC(=O)Nc1ccc2c(c1)C(=O)N([C@@H](C)CO)C[C@@H](C)[C@H](CN(C)C(=O)Nc1ccc(C(F)(F)F)cc1)OCCCC[C@@H](C)O2 | inactive: 1.03
31 | O=C1CN(S(=O)(=O)Cc2ccccc2)C[C@H]2[C@H](c3ccc(C#Cc4ccc(F)cc4)cc3)[C@@H](CO)N12 | inactive: 0.965
32 | C[C@H]1CN([C@@H](C)CO)C(=O)c2cccc(NC(=O)C3CCOCC3)c2O[C@@H]1CN(C)C(=O)Nc1ccc2c(c1)OCO2 | inactive: 1.03
33 | C[C@H](CO)N1C[C@H](C)[C@H](CN(C)C(=O)c2ccncc2)Oc2ncc(-c3ccc(C(=O)N(C)C)cc3)cc2C1=O | inactive: 0.98
34 | CN(C)CCC(c1ccccc1)c1ccccn1.O=C(O)C=CC(=O)O (stereo not given) | inactive: 0.966
35 | Nc1nc(N)c2nc(-c3ccccc3)c(N)nc2n1 | inactive: 0.805
36 | C[C@H]1CN([C@@H](C)CO)C(=O)c2c(c3ccccc3n2C)-c2ccccc2CO[C@H]1CN(C)C(=O)Nc1ccc2c(c1)OCO2 | inactive: 1.03
37 | C[C@H](CO)N1C[C@H](C)[C@H](CN(C)Cc2ccc(Oc3ccccc3)cc2)Oc2ccc(NC(=O)Nc3ccc(F)cc3)cc2CC1=O | inactive: 1.07
38 | NCc1cc2ccccc2s1 | inactive: 0.994
39 | C[C@H](CO)N1C[C@H](C)[C@H](CN(C)S(=O)(=O)c2cn(C)cn2)Oc2ncc(C3=CCCCC3)cc2C1=O | inactive: 0.998
40 | O=C(O)[C@H]1O[C@@H](Oc2c(-c3ccc(O)c(O)c3)oc3cc(O)cc(O)c3c2=O)[C@H](O)[C@@H](O)[C@@H]1O | inactive: 0.956

Row | Structure (SMILES) | relative growth
41 | C[C@H]1CN([C@@H](C)CO)C(=O)c2cccc(NC(=O)C3CCCCC3)c2O[C@H]1CN(C)Cc1ccc(-c2ccccc2)cc1 | inactive: 0.993
42 | C[C@@H]1CCCCO[C@H](CN(C)C(=O)CCCN(C)C)[C@@H](C)CN([C@@H](C)CO)C(=O)c2cc(N(C)C)ccc2O1 | inactive: 1
43 | C[C@H]1CN([C@@H](C)CO)C(=O)c2cccc(NC(=O)CCCCCC(=O)Nc3ccccc3N)c2O[C@@H]1CN(C)C(=O)Nc1ccccc1 | inactive: 1
44 | C[C@@H]1CCCCO[C@@H](CN(C)C)[C@H](C)CN([C@H](C)CO)C(=O)c2cc(NC(=O)CCCCCC(=O)Nc3ccccc3N)ccc2O1 | inactive: 1.03
45 | COc1cccc(C(=O)Nc2ccc3c(c2)C(=O)N(C)[C@H]2CC[C@H](CC(=O)NCCCN4CCOCC4)O[C@H]2CO3)c1 | inactive: 1.01
46 | C[C@H](CO)N1C[C@H](C)[C@@H](CN(C)C(=O)C2CCOCC2)Oc2ncc(C#Cc3ccccc3F)cc2C1=O | inactive: 1
47 | CC(C)NC(=O)Nc1ccc2c(c1)C(=O)N([C@H](C)CO)C[C@@H](C)[C@@H](CN(C)C(=O)NC1CCCCC1)O2 | inactive: 1
48 | CO[C@H]1C[C@@H](C[C@@H](C)[C@H]2CC(=O)[C@H](C)/C=C(\C)[C@@H](O)[C@H](OC)C(=O)[C@H](C)C[C@H](C)/C=C/C=C\C=C(C)[C@H](OC)C[C@@H]3CC[C@@H](C)[C@@](O)(O3)C(=O)C(=O)N3CCCC[C@H]3C(=O)O2)CC[C@H]1OC(=O)C(C)(CO)CO | inactive: 0.951
49 | C[C@@H]1CN([C@H](C)CO)C(=O)c2cc(NC(=O)Nc3ccc(C(F)(F)F)cc3)ccc2O[C@H]1CN(C)Cc1ccc(-c2ccccc2)cc1 | inactive: 1.02
50 | Cc1ccc(S(=O)(=O)Nc2ccc3c(c2)C(=O)N([C@H](C)CO)C[C@@H](C)[C@@H](CN(C)CC2CCCCC2)OCCCC[C@H](C)O3)cc1 | inactive: 0.987
51 | C[C@@H]1CN([C@@H](C)CO)C(=O)c2cc(NS(=O)(=O)c3ccccc3)ccc2O[C@@H](C)CCCCO[C@@H]1CN(C)CC1CCCCC1 | inactive: 0.973
52 | C[C@@H](O)Cn1cnc2c1c(=O)n(C)c(=O)n2C | inactive: 1
53 | C[C@@H]1CN([C@H](C)CO)S(=O)(=O)c2ccc(-c3ccccc3F)cc2O[C@H]1CN(C)Cc1cncnc1 | inactive: 0.994
54 | C[C@@H]1CN([C@@H](C)CO)C(=O)c2cc(NC(=O)Nc3cccc4ccccc34)ccc2O[C@H]1CN(C)S(=O)(=O)c1cccs1 | inactive: 0.894
55 | C[C@@H]1CN([C@H](C)CO)C(=O)Cc2cc(NS(C)(=O)=O)ccc2O[C@H]1CN(C)S(=O)(=O)c1cn(C)cn1 | inactive: 1.01
56 | CO[C@@H]1CN(C)C(=O)c2cc(NC(=O)Nc3ccccc3)ccc2OC[C@@H](C)N(C(=O)CN(C)C)C[C@@H]1C | inactive: 0.99
57 | C=CCC1C=C(C)CC(C)CC(OC)C2OC(O)(C(=O)C(=O)N3CCCCC3C(=O)OC(C(C)=CC3CCC(O)C(OC)C3)C(C)C(O)CC1=O)C(C)CC2OC (stereo not given) | inactive: 0.932
58 | COc1cccc(S(=O)(=O)N(C)C[C@@H]2Oc3ncc(-c4ccccc4)cc3C(=O)N([C@H](C)CO)C[C@@H]2C)c1 | inactive: 1
59 | NC(=O)N1C(=O)[C@H]2[C@H](C1=O)[C@H]1C=C(CCCO)[C@@H]2[C@@H](C2CC2)N1Cc1cc2c(cc1Br)OCO2 | inactive: 1.02
60 | COc1cccc(S(=O)(=O)Nc2ccc3c(c2)C(=O)N(C)C[C@@H](OC)[C@H](C)CN(C(=O)Cc2cccnc2)[C@H](C)CO3)c1 | inactive: 0.975
